Experimental data as given in patent EP0367747A2, “Dideoxy-L-arabinitol derivatives as antiviral compounds” (G.D. Searle & Co., priority 1988, dated 1990).
The name of at least one read-out is uncertain.

Tested on: visna virus
Experiment: Inhibition of visna virus in vitro (plaque reduction assay / 96 well plate assay) in SCP cells
Format: cell-based
Design: key to Antiviral Activity: A = active compound; I = inactive
Description: Various compounds as prepared above were tested for inhibition of visna virus in vitro in a plaque reduction assay as follows:
Sheep choroid plexus(SCP) cells were obtained from American Type Culture Collection (ATCC) catalogue number CRL 1700 and were routinely passaged in vitro in Dulbecco's Modified Eagles (DME) medium supplemented with 20% fetal bovine serum (FBS). SCP cells were passaged once per week at a 1:2 or 1:3 split ratio. Visna was titrated by plaque assay in six-well plates. Virus pools were stored at -70°C.
SCP cells were cultured in 6-well plates to confluence. Wells were washed two times with serum free Minimal Essential Medium (MEM) to remove FBS. 0.2ml of virus was added per well in MEM supplemented with 4mM glutamine and gentamycin. After 1 hour adsorption, the virus was aspirated from each well. The appropriate concentration of each compound in 5 ml of Medium 199 (M-199) supplemented with 2% lamb serum, 4mM glutamine, 0.5% agarose and gentamycin was added to each well. Cultures were incubated at 37°C in a humidified 5% CO₂ incubator for 3-4 weeks. To terminate the test: cultures were fixed in 10% formalin, the agar removed, the monolayers stained with 1% crystal violet and plaques counted. Each compound concentration was run in triplicate. […] 0 is no toxicity observed while 4 is total lysing of the cell monolayer.
The 96 well plate assay was performed similarly to the plaque assay above with modifications. SCP cells were seeded at 1 x 10⁴ cells per well in 0.1 ml DME medium. When confluent, the wells were washed with serum free MEM and 25ul of virus added in M-199 supplemented with 2% lamb serum. After 1 hour, 75uL of medium containing test compound was added to each well containing virus. After 2-3 weeks incubation the cytopathic effect of the virus was determined by staining with a vital stain. Cell viability was measured by determining stain density using a 96 well plate reader.

OCCN1C[C@H](O)[C@@H](O)[C@@H]1CO [Example 2, 1,4-Dideoxy-1,4-([2-hydroxyethyl]imino)-L-arabinitol]
% Inhibition (Table 4, 0.01 mM Concn.): 33%/0.01 | Antiviral Activity (Table 4, 0.01 mM Concn.): I | % Inhibition (Table 4, 0.1 mM Concn.): 66%/0.1mM | Antiviral Activity (Table 4, 0.1 mM Concn.): A

CC(=O)OCCN1C[C@H](OC(C)=O)[C@@H](OC(C)=O)[C@@H]1COC(C)=O [Example 3, 1,4-([2-Acetyloxyethyl]imino)-1,4-dideoxy-L-arabinitol, triacetate]
Antiviral Activity (Concentration 0.001 mM): I | Antiviral Activity (Concentration 0.01 mM): I | Antiviral Activity (Concentration 0.1 mM): A | Antiviral Activity (Concentration 1.0 mM): A

CCCCN1CC(O)C(O)C1CO [Example 4, 1,4-(Butylimino)-1,4-dideoxy-L-arabinitol]
% Inhibition (Table 4, 0.01 mM Concn.): 42%/0.01 | Antiviral Activity (Table 4, 0.01 mM Concn.): I | % Inhibition (Table 4, 0.1 mM Concn.): 76%/0.1 | Antiviral Activity (Table 4, 0.1 mM Concn.): A | % Inhibition (Table 4, 1.0 mM Concn.): 71%/1.0 | Antiviral Activity (Table 4, 1.0 mM Concn.): A

CCCCN1C[C@H](OC(C)=O)[C@@H](OC(C)=O)[C@@H]1COC(C)=O [Example 5, 1,4-(Butylimino)-1,4-dideoxy-L-arabinitol, triacetate]
Antiviral Activity (Concentration 0.001 mM): I | Antiviral Activity (Concentration 0.01 mM): I | Antiviral Activity (Concentration 0.1 mM): I | Antiviral Activity (Concentration 1.0 mM): A

CCCCCCN1C[C@H](OC(C)=O)[C@@H](OC(C)=O)[C@@H]1COC(C)=O [Example 7, 1,4-(Hexylimino)-1,4-dideoxy-L-arabinitol, triacetate]
% Inhibition (Table 4, 0.01 mM Concn.): 48%/0.01 | % Inhibition (Table 4, 0.1 mM Concn.): 52%/0.1 | % Inhibition (Table 4, 1.0 mM Concn.): 100%/1.0

OC[C@H]1[C@H](O)[C@@H](O)CN1Cc1ccc(Cl)cc1 [Example 8, 1,4-([4-Chlorophenyl]methylimino)-1,4-dideoxy-L-arabinitol]
% Inhibition (Table 4, 0.01 mM Concn.): 29%/0.01 | Antiviral Activity (Table 4, 0.01 mM Concn.): I | % Inhibition (Table 4, 1.0 mM Concn.): 100%/1.0 | Antiviral Activity (Table 4, 1.0 mM Concn.): A

CCc1ccc(CN2C[C@H](OC(C)=O)[C@@H](OC(C)=O)[C@@H]2COC(C)=O)cc1 [Example 10, 1,4-([4-Ethylphenyl]methylimino)-1,4-dideoxy-L-arabinitol, triacetate]
% Inhibition (Table 4, 0.01 mM Concn.): 21%/0.01 | Antiviral Activity (Table 4, 0.01 mM Concn.): I | % Inhibition (Table 4, 0.1 mM Concn.): 71%/0.1 | Antiviral Activity (Table 4, 0.1 mM Concn.): A | % Inhibition (Table 4, 1.0 mM Concn.): 100%/1.0

OC[C@H]1[C@H](O)[C@@H](O)CN1CCCc1ccccc1 [Example 16, 1,4-([3-Propylphenyl]imino)-1,4-dideoxy-L-arabinitol]
% Inhibition (Table 4, 0.01 mM Concn.): 22%/0.01 | Antiviral Activity (Table 4, 0.01 mM Concn.): I | % Inhibition (Table 4, 0.1 mM Concn.): 100%/0.1 | Antiviral Activity (Table 4, 0.1 mM Concn.): A | % Inhibition (Table 4, 1.0 mM Concn.): 100%/1.0 | Antiviral Activity (Table 4, 1.0 mM Concn.): A

CC(=O)OC[C@H]1[C@H](OC(C)=O)[C@@H](OC(C)=O)CN1C(=O)OCc1ccccc1 [Example 20, 1,4-(Benzyloxycarbonylimino)-1,4-dideoxy-L-arabinitol, triacetate]
% Inhibition (Table 4, 0.1 mM Concn.): 14%/0.1 | Antiviral Activity (Table 4, 0.1 mM Concn.): I | % Inhibition (Table 4, 1.0 mM Concn.): 58%/1.0 | Antiviral Activity (Table 4, 1.0 mM Concn.): A

CCCC(=O)OC[C@H]1[C@H](OC(=O)CCC)[C@@H](OC(=O)CCC)CN1C(=O)OCc1ccccc1 [Example 22, 1,4-(Benzyloxycarbonylimino)-1,4-dideoxy-L-arabinitol, tributyrate]
% Inhibition (Table 4, 0.1 mM Concn.): -61%/0.1 | Antiviral Activity (Table 4, 0.1 mM Concn.): I | % Inhibition (Table 4, 1.0 mM Concn.): 61%/1.0 | Antiviral Activity (Table 4, 1.0 mM Concn.): A

CCCCN1CC(OC(=O)CCC)C(OC(=O)CCC)C1COC(=O)CCC [Example 26, 1,4-(Butylimino)-1,4-dideoxy-L-arabinitol, tributyrate]
% Inhibition (Table 4, 0.1 mM Concn.): 43%/0.1 | Antiviral Activity (Table 4, 0.1 mM Concn.): I | % Inhibition (Table 4, 1.0 mM Concn.): 100%/1.0 | Antiviral Activity (Table 4, 1.0 mM Concn.): A

CC(=O)OC[C@H]1[C@H](OC(C)=O)[C@@H](OC(C)=O)CN1C(=O)Cc1ccccc1 [Example 28, 1,4-(Phenylacetylimino)-1,4-dideoxy-L-arabinitol, triacetate]
% Inhibition (Table 4, 0.01 mM Concn.): 56%/0.01 | % Inhibition (Table 4, 0.1 mM Concn.): 73%/0.1 | % Inhibition (Table 4, 1.0 mM Concn.): 90%/1.0mM

CCC(=O)OC[C@H]1[C@H](OC(=O)CC)[C@@H](OC(=O)CC)CN1C(=O)OCc1ccccc1 [Example 29, 1,4-(Benzyloxycarbonylimino)-1,4-dideoxy-L-arabinitol, tripropionate]
% Inhibition (Table 4, 0.001 mM Concn.): 93%/0.001 | % Inhibition (Table 4, 0.01 mM Concn.): 87%/0.01 | % Inhibition (Table 4, 0.1 mM Concn.): 97%/0.1

CCC(=O)N1C[C@H](OC(C)=O)[C@@H](OC(C)=O)[C@@H]1COC(C)=O [Example 31, 1,4-(Propionylimino)-1,4-dideoxy-L-arabinitol, triacetate]
% Inhibition (Table 4, 0.1 mM Concn.): 18%/0.1 | Antiviral Activity (Table 4, 0.1 mM Concn.): I | % Inhibition (Table 4, 1.0 mM Concn.): 64%/1.0 | Antiviral Activity (Table 4, 1.0 mM Concn.): A

CCCCN1C[C@H](O)[C@@H](O)[C@H](O)[C@H]1CO [N-Bu-DNJ, N-butyl derivative of 1,5-dideoxy-1,5-imino-D-glucitol, reference compound]
Antiviral Activity (Concentration 0.001 mM): I | Antiviral Activity (Concentration 0.01 mM): I | Antiviral Activity (Concentration 0.1 mM): A | Antiviral Activity (Concentration 1.0 mM): A
